From US20210388043A1 (published 2021)
One block for each binder: values may come before it.

Tests used:
CD47 [1] = biological target: T1, CD47 (human, UniProt Q08722); experiment: cell binding (FACS); PC-3 cells
CD47 [2] = biological target: T1, CD47; experiment: blocking of FITC-SIRPα-Fc binding to cells; Jurkat cells

EC50 (CD47 [1]): 1.64 µg/mL | IC50 (CD47 [2]): 30 nM
B1: SIRPα-Fc (Fc fusion)
chain: SCAWSGVAGEE[left out - about 120 residues]KPSAPVVSGPAARATPQHTVSFTCESHGFSPRDITLKWFKNGNELSDFQTNVDPVGESVSYSIHSTAKVVLTREDVHSQVICEVAHVTLQGDPLRGTANLSETIRVPPTLEVTQQPVRAENQVNVTCQVRKFYPQRLQLTWLENGNVSRTETASTVTENKDGTYNWMSWLLVNVSAHRDDVKLTCQVEHDGQPAVSKSHDLKVSAHPKEQGSNTAAENTGSNERNEF[left out - human IgG1 Fc]

IC50 (CD47 [2]): 26.1 nM
B2: SIRPαD1-Fc (Fc fusion)
chain: not shown
